Data as given in PubChem BioAssay AID445 (National Center for Advancing Translational Sciences (NCATS), 2006).
Among all 110,000 compounds or so, about 40 (0.04%) were called active. The inconclusive results got no clear call from the source; some entries with a clear call stand among them for comparison. Calls come from the whole dose curve; as a rule, active = well fitted curve in the direction sought with a large enough effect in the signal ratio (not every such curve was filed as active); inconclusive = small, poorly fitted or top-dose-only effect, or a change in a side signal; inactive = flat fitted curve, though single readings scatter; the % refers to the signal ratio. Potencies beside an inconclusive call are fits to weak or partial responses and may not hold up.

assay: IkB Signaling; conditions: ABC-DLBCL IkBa-CBG/CBR dual luciferase ratio (green luciferase fused to IkBa over red control in OCI-Ly3 lymphoma cells), 4 h; IkBa stabilization activation: at 57.1 µM (top of the series), scaled: untreated 0%, proteasome inhibitor 100% unless noted;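 for IkBa stabilization activation: 0% = basal untreated cells and 100% = reference inhibitor full response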
Summary of the method: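 Curves were fitted separately to fusion (green), unfused (red) and ratio luminescence, then classed by r2, magnitude and activity. Cells: OCI-Ly3, 4 h compound plus doxycycline at 37C; 10 uM MG-132 defined full response.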
Potency is the fitted concentration of half-maximal effect.

Row | SMILES | IkBa stabilization activation | Potency
1 | CC(C)CCn1c(NCCN(C)C)nc2c1c(=O)[nH]c(=O)n2C | inactive | 
2 | Cc1ccc(C)c(CN2CCCN(Cc3cc(C)ccc3C)S2(=O)=O)c1 | inconclusive: 0.631% [signal inhibitor] | 
3 | CCc1nc2ccccc2n1CCCCOc1ccccc1C | inconclusive: -1.35% [signal inhibitor] | 
4 | COc1cc2cc(C(c3nnnn3C3CCCC3)N(C)C3CCCCC3)c(=O)[nH]c2cc1OC (centres undefined) | inactive | 
5 | CC(Nc1nc(N2CCCC2)nc2ccccc12)c1ccccc1 (centres undefined) | inconclusive: 0.791% [signal inhibitor] | 
6 | COc1cc2c(cc1NC(=O)CN(C)Cc1nc3ccccc3c(=O)[nH]1)oc1ccccc12 | inconclusive: 0.886% [signal inhibitor] | 
7 | COc1ccc(CCNC(=O)CCCCn2c(=O)c3ccccc3n(CC(=O)Nc3ccccc3C)c2=O)cc1OC | inactive | 
8 | CCCOc1cccc(C(=O)Nc2ccc(-c3nc4ccccc4s3)c(Cl)c2)c1 |  | inconclusive: 20 µM [signal inhibitor]
9 | CCN1C(C(=O)c2ccccc2)=C(OC(=O)C(C)C)c2ccccc2S1(=O)=O | inconclusive: 15.5% [signal inhibitor] | 
10 | CCc1ccccc1NC(=O)Cn1c(=O)nc(-c2ccccc2)c2ccccc21 | inconclusive: 0.0279% [signal inhibitor] | 
11 | Cc1ccccc1NC(=O)N1CCCC(c2nc(-c3ccc(C(C)C)cc3)no2)C1 (centres undefined) | inconclusive: 7.42% [signal inhibitor] | 
12 | CCn1c2c(c(=O)n3ncc(C(=O)Nc4cccc(Cl)c4C)c13)CN(Cc1ccc(OC)cc1)CC2 | inconclusive: 1.74% [signal inhibitor] | 
13 | CCN1C(=O)CC(n2c(C)nc3ccccc32)C1=O (centres undefined) | inactive | 
14 | Cn1c(=O)c2c(nc(Cc3ccccc3)n2CC(=O)O)n(C)c1=O | inactive: 1.21% [at 11.4 µM, scaled: untreated 0%, proteasome inhibitor 100%] | 
15 | CCCC(O)c1nc2ccccc2n1CCCCOc1ccc(OC)cc1 (centres undefined) |  | inconclusive: 20 µM [signal inhibitor, partial curve]
16 | O=S1(=O)Nc2c(ccc3cccnc23)-c2ccccc21 |  | active: 0.794 µM
17 | Cc1cc(C)cc(NC(=O)CSc2nncn3c2cc2occc23)c1 | inconclusive: 4.94% [signal inhibitor] | 
18 | COC(=O)c1nnn(-c2nonc2N)c1CSc1nc2ccccc2s1 | inconclusive: 0.508% [signal inhibitor] | 
19 | CCn1c(SCC(=O)c2ccc([N+](=O)[O-])cc2)nnc1-c1ccc(Cl)cc1 | inconclusive: -4.01% [signal inhibitor] | 
20 | COc1cccc(CNC(=O)Cn2cc3c(n2)-c2c(oc(C(=O)N4CCCC4)c2C)CC3)c1 | inconclusive: -1.74% [signal inhibitor] | 
21 | CCc1ccc(NC(=O)Cn2ncc3c4ccccc4n(C)c3c2=O)cc1 | inconclusive: 3.15% [signal inhibitor] | 
22 | c1ccc(Cn2nnc3c(Nc4ccc5c(c4)OCO5)nc(C4CC4)nc32)cc1 | inactive | 
23 | CCCCn1cc(S(=O)(=O)c2ccc(OC)cc2)c(=O)c2cc(F)c(F)cc21 | inconclusive: 0.314% [signal inhibitor] | 

Row | SMILES | IkBa stabilization activation | Potency
24 | Clc1cccc(-c2csc(-c3nc(-c4ccc(Br)s4)cs3)n2)c1 | inactive | 
25 | CCOc1ccc(NC(=O)c2cc(S(=O)(=O)NC3CCCC3)ccc2F)cc1 | inconclusive: 2.55% [signal inhibitor] | 
26 | CCc1ccc(NC(=O)CSc2nc(-c3ccccc3)c(C#N)c(=O)[nH]2)cc1 | inconclusive: -1.07% [signal inhibitor] | 
27 | Cc1ccc(OCc2nc(-c3ccc(C(=O)N4CCN(c5ccc(Cl)cc5)CC4)cc3)oc2C)cc1 | inconclusive: -0.328% [signal inhibitor] | 
28 | CC(C)CN1CCC2(CC1)CCN(C(=O)c1cccc(F)c1)CC2 | inactive: 0.0582% [at 11.4 µM, scaled: untreated 0%, proteasome inhibitor 100%] | 
29 | CC(C)CCNC(=O)CSc1c2c(nc3ccc(Cl)cc13)CCCC2 |  | inconclusive: 31.6 µM [signal inhibitor, single point]
30 | CC(C)Oc1ccc(CNC(=O)Cn2c(=O)oc3ccccc32)cc1 | inconclusive: 1.35% [signal inhibitor] | 
31 | Cc1cccc(-c2nc(SCC(=O)Nc3cccc(C(F)(F)F)c3)n3[nH]c(=O)cc3n2)c1 | inconclusive: 4.27% [signal inhibitor] | 
32 | CC(C)(C)c1nnc2sc(SCC(=O)c3cccs3)nn2c1=O | inconclusive: 7.04% [signal inhibitor] | 
33 | CCOc1ccc(CNC(=O)C2CCCN(S(=O)(=O)c3ccc4c(c3)CCCC(=O)N4)C2)cc1 (centres undefined) | inconclusive: -3.83% [signal inhibitor] | 
34 | O=C(O)c1ccncc1.O=C(O)c1ccncc1.[Cl][Pt]([Cl])([Cl])[Cl] | inactive: -1.99% [at 11.4 µM, scaled: untreated 0%, proteasome inhibitor 100%] | 
35 | Cc1nn(Cc2ccc(Cl)cc2)c(C)c1NC(=O)c1noc2c1CCc1ccccc1-2 | inconclusive: -2.19% [signal inhibitor] | 
36 | CCOC(=O)C1=C(CN2CCN(CC)CC2)NC(=O)NC1c1ccc(Cl)cc1 (centres undefined) | inactive | 
37 | O=C(Cc1ccccc1)Nc1ccc(CN2CCOCC2)cc1 | inactive | 
38 | Cc1ccc(NC(=O)CSc2nc3nccnc3c(=O)n2CCc2c[nH]c3ccccc23)cc1 | inactive | 
39 | COc1cc(CNc2ccc3[nH]c(=O)[nH]c3c2)ccc1OCc1ccccc1F | inactive | 
40 | CCN(CC)S(=O)(=O)c1ccc(NC(=O)CCc2c(C)nc3cc(-c4ccc(Cl)cc4)nn3c2C)cc1 |  | inconclusive: 31.6 µM [signal inhibitor, partial curve]
41 | CC(C)Cc1nn2c(=O)cc(COC(=O)c3ccc4c(c3)OCO4)nc2s1 | inactive | 
42 | COc1ccc(Cl)cc1NC(=O)CSc1ccc(-c2sc(C)nc2C)nn1 | inconclusive: 3.63% [signal inhibitor] | 
43 | Nc1ccc2cc3ccccc3cc2c1 |  | active: 3.16 µM
44 | CCOC(=O)c1cc2c(=O)n3ccccc3nc2n(CCCOC)c1=NC(=O)C(C)(C)Oc1ccc(Cl)cc1 | inconclusive: 2.5% [signal inhibitor] | 
45 | O[C@H](C[C@@H]1CCCCN1)c1ccc2c(c1)oc1ccccc12 | inactive: -6.17% [at 11.4 µM, scaled: untreated 0%, proteasome inhibitor 100%] | 
46 | CCCn1c(NC(=O)C2CCN(S(=O)(=O)c3cccs3)CC2)nc2ccccc21 |  | inconclusive: 20 µM [signal inhibitor, partial curve]

Row | SMILES | IkBa stabilization activation | Potency
47 | O=C(Cn1c(=O)oc2cc(S(=O)(=O)N3CCCC3)ccc21)Nc1ccc(C(F)(F)F)cc1 | inactive | 
48 | CCOC(=O)c1c(C)[nH]c(CCC(=O)NCCCN2CCN(c3cc(C)ccc3C)CC2)c1C | inconclusive: -0.16% [signal inhibitor] | 
49 | COc1ccccc1CNC(=O)CN1C(=O)CSc2ccc(S(=O)(=O)N(C)C)cc21 | inactive | 
50 | CCCn1c(CCC(=O)Nc2cc(Cl)c(OC)cc2OC)nc2cccnc21 | inactive | 
51 | Cc1ccc(C)c(NC(=O)CSc2ncc3c(n2)-c2ccc(Cl)cc2N(C)S3(=O)=O)c1 | inconclusive: 13.9% [signal activator] | 
52 | O=C(CCSCc1ccccc1Cl)N1CCN(c2cccc(Cl)c2)CC1 | inconclusive: -1.66% [signal inhibitor] | 
53 | N#CC1=C(N)OC(c2ccccc2)=C(C#N)C1c1ccc2c(c1)OCO2 (centres undefined) | inconclusive: 9.09% [signal inhibitor] | 
54 | CCn1nc(-c2ccccc2)c(-c2ccccc2)c(C(=O)Nc2nc(C)c(C(=O)N(C)C)s2)c1=O | inconclusive: -1.77% [signal inhibitor] | 
55 | CCc1nc2cccnc2n1-c1ccc(CC(=O)Nc2ccc(C)cc2)cc1 | inconclusive: 0.664% [signal inhibitor] | 
56 | Cc1c(C(=O)Nc2ccc(N3CCOCC3)cc2)oc2ccccc12 | inconclusive: 0.654% [signal inhibitor] | 
57 | O=C(Cn1c(=O)n(-c2ccccc2Cl)c(=O)c2sc3ccccc3c21)N1CCCC1 | inconclusive: 0.332% [signal inhibitor] | 
58 | CCOc1cc2sc(N3CCC(C(=O)Nc4ccc(C)cc4)CC3)nc2cc1Br | inconclusive: 8.13% [signal inhibitor] | 
59 | CCCCCn1c(=N)c(S(=O)(=O)c2ccccc2)cc2c(=O)n3ccccc3nc21 | inactive | 
60 | CCOc1ccc(NC(=O)c2ccccc2OC)cc1 | inactive | 
61 | CCn1c(=O)c2cc(C(=O)NC3CCCCCC3)sc2c2ccccc21 | inactive | 
62 | COc1ccccc1-c1cc(C(=O)N2CCCCC2)no1 |  | inconclusive: 31.6 µM [signal inhibitor, single point]
63 | COc1ccc(CNC(=O)CN(c2ccccc2OC)S(=O)(=O)c2ccc(C)cc2)cc1 | inconclusive: -0.168% [signal inhibitor] | 
64 | CC(=O)Nc1cccc(NC(=O)c2c(-c3c(Cl)cccc3Cl)noc2C)c1 | inconclusive: 2.41% [signal inhibitor] | 
65 | Cc1cc2oc(C(=O)Nc3sc4c(c3C(=O)NCC3CCCO3)CCC4)cc(=O)c2cc1C (centres undefined) | inactive | 
66 | CC1CCCCN1CCNC(=O)c1cc2c(-c3ccccc3F)nn(C)c2s1 (centres undefined) | inactive | 
67 | CCOc1ccc2[nH]c(=O)c(CN(Cc3ccc(F)cc3)C(=O)c3ccco3)cc2c1 | inconclusive: -14.9% [signal inhibitor] | 
68 | CC(C)(C)n1nnnc1C(c1ccccc1)N1CCc2ccccc2C1 (centres undefined) | inactive | 
69 | COc1ccccc1CNC(=O)Cc1csc2nc(-c3ccc(Cl)cc3)cn12 | inconclusive: 6.34% [signal inhibitor] | 
